# Measurements: PubChem BioAssay (Tox21)
# Values joined by “and” are separate entries in the source; they are usually repeats but may differ in a detail not shown here. Identical values can stand only once. Inconclusive means that the source gave no clear call. Such entries were picked first, then a sample of the others. For part of these data: A potency beside an inconclusive call is a rough fit, not a confirmed value. Active and inactive are the calls of the source. Unless noted, the call rests on the fitted dose curve; in most records, active means well fitted curve in the direction sought with a large enough effect in the repeat runs; inconclusive means weak or mixed curves; inactive means no such curve, though single readings can be large; an effect the other way counts as inactive or inconclusive.
# Columns and labels:
# [1] = qHTS assay to identify small molecule antagonists of the glucocorticoid receptor (GR) signaling pathway - cell viability counter screen (AID 720693); conditions: GR-bla HeLa viability, CellTiter-Glo luminescence, 18 h, with 5 nM dexamethasone present; viability change, negative = cytotoxic: at 58.5 µM (top of the series); further: nearly all actives have a fitted effect of over 55% in size; further: potency means the concentration at half of the fitted maximal effect; on viability change, negative = cytotoxic: on the % scale 0 is the no-effect control and ±100 the full control effect
# [2] = target: Aryl hydrocarbon receptor (Homo sapiens) (UniProt P35869); assay: qHTS assay to identify small molecule that activate the aryl hydrocarbon receptor (AhR) signaling pathway (AID 743085); further: nearly all actives have a fitted effect of over 15% in size; further: potency means the concentration at half of the fitted maximal effect
# Sequence of UniProt P35869 (P35869 whole entry, looked up): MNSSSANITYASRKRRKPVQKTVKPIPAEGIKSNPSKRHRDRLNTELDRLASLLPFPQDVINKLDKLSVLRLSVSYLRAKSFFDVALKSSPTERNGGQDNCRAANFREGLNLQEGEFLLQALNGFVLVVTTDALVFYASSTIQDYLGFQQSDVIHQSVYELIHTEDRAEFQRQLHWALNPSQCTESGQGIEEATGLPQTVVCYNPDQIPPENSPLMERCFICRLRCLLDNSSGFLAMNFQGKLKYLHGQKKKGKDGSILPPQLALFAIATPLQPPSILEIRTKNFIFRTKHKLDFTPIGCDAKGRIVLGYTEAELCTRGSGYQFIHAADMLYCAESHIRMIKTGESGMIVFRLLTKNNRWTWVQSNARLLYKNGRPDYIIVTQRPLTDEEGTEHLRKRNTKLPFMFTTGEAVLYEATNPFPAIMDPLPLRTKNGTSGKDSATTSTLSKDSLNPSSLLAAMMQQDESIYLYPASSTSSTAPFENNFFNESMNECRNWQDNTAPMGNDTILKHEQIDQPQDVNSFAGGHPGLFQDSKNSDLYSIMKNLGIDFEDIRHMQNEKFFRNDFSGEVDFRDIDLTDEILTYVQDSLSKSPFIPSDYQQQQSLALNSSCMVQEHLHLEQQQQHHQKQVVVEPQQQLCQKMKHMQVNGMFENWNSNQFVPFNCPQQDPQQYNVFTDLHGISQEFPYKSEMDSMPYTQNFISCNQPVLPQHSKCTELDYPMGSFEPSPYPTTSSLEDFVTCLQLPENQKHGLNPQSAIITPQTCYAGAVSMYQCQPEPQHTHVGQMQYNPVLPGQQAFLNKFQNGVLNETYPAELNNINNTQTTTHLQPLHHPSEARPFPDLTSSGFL
# Procedure, shortened: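 Luminescence (ONE-Glo) from a dioxin-responsive-element luciferase reporter in HG2L7.5c1 HepG2 cells after 24 hr compound exposure at 37C; viability measured by CellTiter-Fluor fluorescence beforehand.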
# [3] = qHTS assay to identify small molecule agonists of the vitamin D receptor (VDR) signaling pathway - cell viability counter screen (AID 743224); further: nearly all actives have a fitted effect of over 50% in size; further: potency means the concentration at half of the fitted maximal effect
# Procedure, shortened: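 Compounds were pin-transferred onto VDR-bla cells plated 4 h earlier; following 16 h incubation at 37C, cell viability was quantified by CellTiter-Glo luminescence after 30 min at room temperature.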
# [4] = qHTS assay to identify aromatase inhibitors - cell viability counter screen (AID 743084); conditions: MCF-7 aro ERE viability, CellTiter-Fluor, 24 h; activity change, negative = cytotoxicity: at 70.3 µM (top of the series) unless noted;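 further: cells stimulated with testosterone during compound exposure; nearly all actives have a fitted effect of over 55% in size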; further: potency means the concentration at half of the fitted maximal effect
# [5] = target: Peroxisome proliferator-activated receptor delta (Homo sapiens) (UniProt Q03181); assay: qHTS assay to identify small molecule agonists of the peroxisome proliferator-activated receptor delta (PPARd) signaling pathway (AID 743212; calls by dose curve;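 further: HEK293H cells with PPARd UAS beta-lactamase reporter GeneBLAzer system; on the % scale 0 is the no-effect control and ±100 the full control effect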); conditions: HEK293H PPARd-UAS-bla, beta-lactamase FRET ratio, 17 h; activation: at 62.6 µM (top of the series) unless noted
# Sequence of UniProt Q03181 (Q03181 whole entry, looked up): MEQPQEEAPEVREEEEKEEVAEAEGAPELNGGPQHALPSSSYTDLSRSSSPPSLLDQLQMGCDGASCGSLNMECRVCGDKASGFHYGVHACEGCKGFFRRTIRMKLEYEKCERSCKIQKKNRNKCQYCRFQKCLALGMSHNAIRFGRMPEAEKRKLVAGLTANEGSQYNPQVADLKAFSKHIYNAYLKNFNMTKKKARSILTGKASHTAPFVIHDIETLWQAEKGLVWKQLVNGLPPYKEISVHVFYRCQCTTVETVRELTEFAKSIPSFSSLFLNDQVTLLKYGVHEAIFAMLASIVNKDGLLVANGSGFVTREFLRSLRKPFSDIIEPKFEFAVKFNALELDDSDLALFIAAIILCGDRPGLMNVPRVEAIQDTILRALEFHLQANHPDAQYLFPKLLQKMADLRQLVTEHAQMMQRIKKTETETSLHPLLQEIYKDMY
# Procedure, shortened: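 Beta-lactamase reporter read by fluorescence (LiveBLAzer B/G FRET, 2 h, room temperature). Test agents, in DMSO, incubated at 37 C with PPARd-bla HEK293H cells.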
# [6] = qHTS assay to identify small molecule agonists of H2AX - cell viability counter screen (AID 1224847; calls by dose curve; further: top concentration of the series differs between compounds; on the % scale 0 is the no-effect control and ±100 the full control effect; nearly all actives have a fitted effect of over 30% in size)
# Procedure, shortened: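 Counter-screen for viability: CellTiter-Glo ATP luminescence read after 3 h compound treatment (15-point titration, 0.76% DMSO final) of CHO-K1 cells at 37C, with 30 min room-temperature reagent incubation.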
# [7] = Human pregnane X receptor (PXR) small molecule agonists, qHTS cell viability counter screen (AID 1346977); further: nearly all actives have a fitted effect of over 50% in size; further: potency means the concentration at half of the fitted maximal effect
# Procedure, shortened: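 Same-well viability read: CellTiter-Fluor added after 23 hr compound exposure, fluorescence measured 1 hr later. Cells were PXR-Luc HepG2 seeded at 2,000/well in 5% charcoal-stripped FBS medium, rested 5 hr before dosing at 37 C.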
# [8] = Caspase-3/7 induction in CHO-K1 cells by small molecules, qHTS cell viability counter screen (AID 1346979); further: nearly all actives have a fitted effect of over 35% in size; further: potency means the concentration at half of the fitted maximal effect
# Procedure, shortened: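 Cytotoxicity counter screen: CellTiter-Fluor added to compound-treated wild-type CHO-K1 cells at 16 h (37C, 5% CO2), fluorescence measured 1 h later; same wells as caspase-3/7 measurement.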
# [9] = qHTS assay to identify small molecule antagonists of the estrogen receptor alpha (ER-alpha) signaling pathway using the BG1 cell line (AID 743080; calls by dose curve;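 further: BG1 cells stimulated with 17beta-estradiol alongside compound; nearly all actives have a fitted effect of over 25% in size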; further: potency means the concentration at half of the fitted maximal effect; on activity change, negative = inhibition: on the % scale 0 is the no-effect control and ±100 the full control effect); conditions: BG1Luc4E2 ERE-luciferase antagonist mode, luminescence; activity change, negative = inhibition: at 70.3 µM (top of the series) unless noted
# Procedure, shortened: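 Luminescence from a 4×ERE-luciferase reporter in BG1-Luc-4E2 cells served as read-out. Cells, pre-cultured 5 days in stripped-serum phenol-red-free medium, were exposed to compound with 17beta-estradiol co-stimulation for 21.5 h at 37 C.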
# [10] = target: Nuclear receptor subfamily 1 group I member 2 (Homo sapiens) (UniProt O75469); assay: Human pregnane X receptor (PXR) small molecule agonists, qHTS assay (AID 1346982); further: nearly all actives have a fitted effect of over 35% in size; further: potency means the concentration at half of the fitted maximal effect
# Sequence of UniProt O75469 (O75469 whole entry, looked up): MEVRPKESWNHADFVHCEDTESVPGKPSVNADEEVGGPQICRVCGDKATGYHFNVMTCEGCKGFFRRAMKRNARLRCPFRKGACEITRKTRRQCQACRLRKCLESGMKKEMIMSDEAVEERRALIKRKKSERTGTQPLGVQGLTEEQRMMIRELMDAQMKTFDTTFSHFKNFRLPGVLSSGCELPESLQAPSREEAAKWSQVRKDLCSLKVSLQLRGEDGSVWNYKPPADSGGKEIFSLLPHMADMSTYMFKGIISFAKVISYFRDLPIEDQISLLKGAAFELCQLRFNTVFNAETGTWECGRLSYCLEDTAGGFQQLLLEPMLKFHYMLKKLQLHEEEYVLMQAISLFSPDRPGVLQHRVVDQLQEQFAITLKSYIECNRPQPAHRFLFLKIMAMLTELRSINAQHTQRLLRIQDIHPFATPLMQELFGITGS
# Procedure, shortened: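 Reporter HepG2 cells expressing PXR-Luc are cultured in charcoal-stripped FBS (5%), treated with compounds for 24 hr at 37 C, and assayed by ONE-Glo luminescence after 30 min at room temperature.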
# [11] = target: Peroxisome proliferator-activated receptor gamma (Homo sapiens) (UniProt P37231); assay: qHTS assay to identify small molecule agonists of the peroxisome proliferator-activated receptor gamma (PPARg) signaling pathway (AID 743094; active means well fitted activation curve with a large enough effect in the signal ratio in the repeat runs, not every such curve was filed as active; inconclusive means weak or mixed curves, or effect the other way; inactive means no such curve, though single readings can be large or run the other way; the % refers to the signal ratio; further: on the % scale 0 is the no-effect control and ±100 the full control effect); conditions: HEK293H PPARg-UAS-bla, beta-lactamase FRET ratio, 17 h; activation: at 57 µM (top of the series) unless noted
# Sequence of UniProt P37231 (P37231 whole entry, looked up): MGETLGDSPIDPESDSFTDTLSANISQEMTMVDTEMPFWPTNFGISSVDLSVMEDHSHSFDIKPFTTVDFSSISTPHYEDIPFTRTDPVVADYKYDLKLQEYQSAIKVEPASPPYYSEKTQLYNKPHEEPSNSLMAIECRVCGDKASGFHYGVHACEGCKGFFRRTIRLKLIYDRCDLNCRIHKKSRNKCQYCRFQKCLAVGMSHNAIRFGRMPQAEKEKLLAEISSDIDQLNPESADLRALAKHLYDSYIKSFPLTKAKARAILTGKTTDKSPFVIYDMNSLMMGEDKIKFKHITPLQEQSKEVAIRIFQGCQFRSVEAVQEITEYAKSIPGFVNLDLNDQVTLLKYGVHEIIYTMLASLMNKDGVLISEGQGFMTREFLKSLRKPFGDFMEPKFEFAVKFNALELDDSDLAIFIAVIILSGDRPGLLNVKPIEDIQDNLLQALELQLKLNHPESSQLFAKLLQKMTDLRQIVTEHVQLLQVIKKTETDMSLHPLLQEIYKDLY
# Procedure, shortened: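 Reporter activation was scored by fluorescence of cleaved LiveBLAzer B/G substrate (1 h, room temperature) in PPARg-bla HEK293H cells previously treated 17 h at 37C with DMSO-dissolved compounds.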
# [12] = qHTS RealTime-Glo MT Cell Viability Assay in HEK293 cells - 40 hour (AID 1224874); conditions: RealTime-Glo luminescence; max response: hits give low values; further: nearly all actives have a fitted effect of over 50% in size; further: potency means the concentration at half of the fitted maximal effect
# Procedure, shortened: (§1)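 600 HEK293 cells per well, dispensed already mixed with RealTime-Glo MT reagents. Compound dosing came 5 h later. The same wells were read for luminescence at 0, 8, 16, 24, 32 and 40 h of exposure at 37 C.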
# [13] = A CellTox Green Cytotoxicity Assay to monitor cytotoxicity in HEK293 cells - 32 hour (AID 1224881); further: nearly all actives have a fitted effect of over 40% in size; further: potency means the concentration at half of the fitted maximal effect
# Procedure, shortened: (§2)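 Dead-cell fluorescence measured kinetically: asymmetric cyanine dye, HEK293, 600 cells/well, 5 h settle, 23 nL cpd/DMSO, 37 C, reads 0–40 h every 8 h.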
# [14] = A CellTox Green Cytotoxicity Assay to monitor cytotoxicity in HepG2 cells - 24 hour (AID 1224878); further: potency means the concentration at half of the fitted maximal effect; nearly all actives have a fitted effect of over 45% in size
# Procedure, shortened: (§3)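 First, HepG2 cells (600/well) mixed with reagent were plated; second, after 5 h at 37 C they received compounds via pintool; third, fluorescence was measured at 0 h through 40 h at 8 h intervals.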
# [15] = A CellTox Green Cytotoxicity Assay to monitor cytotoxicity in HepG2 cells - 32 hour (AID 1224883); further: nearly all actives have a fitted effect of over 50% in size; further: potency means the concentration at half of the fitted maximal effect
# Procedure, shortened: as §3
# [16] = qHTS RealTime-Glo MT Cell Viability Assay in HEK293 cells - 8 hour (AID 1224887); further: nearly all actives have a fitted effect of over 50% in size; further: potency means the concentration at half of the fitted maximal effect
# Procedure, shortened: as §1
# [17] = target: Estrogen receptor (Homo sapiens) (UniProt P03372); assay: qHTS assay to identify small molecule antagonists of the estrogen receptor alpha (ER-alpha) signaling pathway (AID 743069; active means well fitted curve in the direction sought with a large enough effect in the signal ratio in the repeat runs, not every such curve was filed as active; inconclusive means weak or mixed curves, or effect the other way; inactive means no such curve, though single readings can be large or run the other way; the % refers to the signal ratio; further: potency means the concentration at half of the fitted maximal effect); conditions: HEK293 ER-alpha-UAS-bla, beta-lactamase ratio, antagonist mode; activity, negative = inhibition: at 69.4 µM (top of the series) unless noted
# Sequence of UniProt P03372 (P03372 whole entry, looked up): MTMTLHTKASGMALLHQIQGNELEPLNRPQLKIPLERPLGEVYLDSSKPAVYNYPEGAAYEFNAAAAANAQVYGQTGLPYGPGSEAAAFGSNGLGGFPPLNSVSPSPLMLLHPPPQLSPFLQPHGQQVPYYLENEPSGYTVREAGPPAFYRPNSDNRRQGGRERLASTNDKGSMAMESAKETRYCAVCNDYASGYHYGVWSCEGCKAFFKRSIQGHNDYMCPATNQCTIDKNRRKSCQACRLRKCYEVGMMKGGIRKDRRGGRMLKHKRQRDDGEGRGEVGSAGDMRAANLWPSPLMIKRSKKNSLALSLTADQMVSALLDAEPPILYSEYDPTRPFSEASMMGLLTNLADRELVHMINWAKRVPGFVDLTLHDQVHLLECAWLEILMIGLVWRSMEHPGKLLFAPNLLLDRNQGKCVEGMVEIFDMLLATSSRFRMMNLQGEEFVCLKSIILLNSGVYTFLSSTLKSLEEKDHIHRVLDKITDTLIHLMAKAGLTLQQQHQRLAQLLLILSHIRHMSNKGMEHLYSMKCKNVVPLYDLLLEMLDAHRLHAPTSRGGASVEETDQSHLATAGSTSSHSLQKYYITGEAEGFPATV
# Procedure, shortened: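 A 17beta-estradiol challenge was applied right after compound transfer to ER-alpha-UAS-bla HEK293 cells previously kept in charcoal-stripped serum. Plates stood 18 hr at 37C and 5% CO2; fluorescence was read following 2 hr FRET substrate loading at room temperature.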
# [18] = target: Cytochrome P450 3A4 (Homo sapiens) (UniProt P08684); assay: Cytochrome P450 Family 3 Subfamily A Member 4 (CYP3A4) small molecule antagonists: luciferase reporter qHTS assay (AID 1671201)
# Sequence of UniProt P08684 (P08684 whole entry, looked up): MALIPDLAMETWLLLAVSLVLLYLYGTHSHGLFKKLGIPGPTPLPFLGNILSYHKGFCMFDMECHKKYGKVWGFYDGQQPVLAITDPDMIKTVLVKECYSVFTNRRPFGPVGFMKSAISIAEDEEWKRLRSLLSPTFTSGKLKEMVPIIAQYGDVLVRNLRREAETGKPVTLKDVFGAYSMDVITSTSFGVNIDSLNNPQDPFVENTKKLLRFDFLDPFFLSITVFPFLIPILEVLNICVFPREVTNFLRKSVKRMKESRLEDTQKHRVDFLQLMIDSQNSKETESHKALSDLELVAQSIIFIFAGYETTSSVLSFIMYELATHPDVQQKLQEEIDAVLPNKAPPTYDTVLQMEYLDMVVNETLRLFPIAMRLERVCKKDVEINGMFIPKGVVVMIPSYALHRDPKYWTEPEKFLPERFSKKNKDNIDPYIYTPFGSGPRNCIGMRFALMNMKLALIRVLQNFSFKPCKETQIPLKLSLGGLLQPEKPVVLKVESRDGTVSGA
# Procedure, shortened: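 Recombinant human CYP3A4 converts a proluciferin substrate to luciferin over 1 h at room temperature after NADPH regeneration solution is added (compound preincubated 10 min); detection reagent stops reaction, luminescence read 20 min later as relative units.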
# [19] = A CellTox Green Cytotoxicity Assay to monitor cytotoxicity in HEK293 cells - 40 hour (AID 1224871); further: potency means the concentration at half of the fitted maximal effect; nearly all actives have a fitted effect of over 45% in size
# Procedure, shortened: as §2
# Tags describe the fitted curve by direction and shape or compound fluorescence and quenching.
smiles,measurement,setting,value
Nc1ccc(F)cc1F,Potency,[1],inactive
same,Potency,[2],"inconclusive: 61.8 µM [activator, partial curve, poor fit]"
same,Potency,[3],"inconclusive: 24.8 µM [rising, single point]"
O=S(=O)(O)c1ccc2c(N=Nc3ccc(S(=O)(=O)O)c4ccccc34)c(O)c(S(=O)(=O)O)cc2c1,Potency,[4],"inconclusive: 2.14 µM [cytotoxic, partial curve]"
same,activation,[5],inactive: 0.0676% [at 5.95 µM]
same,"activity change, negative = cytotoxicity",[6],inactive: -5.59% [at 14 µM]
same,Potency,[7],"inconclusive: 2.4 µM [cytotoxic, partial curve, poor fit]"
same,Potency,[8],"inconclusive: 3.81 µM [cytotoxic, single point]"
COc1ccc(/C=N/NC(=O)c2ccncc2)cc1OC,Potency,[9],inactive
same,Potency,[2],active: 2.66 µM
CCCCC(CC)COC(=O)c1ccccc1 (stereo not given),Potency,[10],inactive
CNC(=O)Oc1ccc2c(c1)[C@]1(C)CCN(C)[C@@H]1N2C,Potency,[4],inactive
same,Potency,[11],inactive
same,max response,[12],inactive: 4.52% and inactive: 8.75%
same,Potency,[13],"inconclusive: 23.9 µM [activator, partial curve, poor fit]"
same,Potency,[10],"inconclusive: 34.4 µM [activator, partial curve]"
O=c1c(O)c(O)c1=O,Potency,[11],inactive
same,Potency,[3],inactive
same,Potency,[7],inactive
same,Potency,[8],inactive
Nc1ccccn1,Potency,[7],inactive
CCCCCC=O,Potency,[1],"inconclusive: 17.4 µM [rising, partial curve]"
same,Potency,[2],inactive
same,activation,[5],inconclusive: 0.683% [at 81.1 µM]
same,Potency,[14],"inconclusive: 0.0219 µM [activator, full curve, poor fit]"
same,Potency,[15],"inconclusive: 0.0219 µM [activator, full curve, poor fit]"
CCN(CC)CC(=O)Oc1ccc(NC(C)=O)cc1,Potency,[12],"inconclusive: 10.7 µM [cytotoxic, single point]"
same,Potency,[16],"inconclusive: 10.7 µM [cytotoxic, single point]"
CCCC(=O)O[C@]1(C(=O)COC(=O)CC)CC[C@H]2[C@@H]3CCC4=CC(=O)CC[C@]4(C)[C@H]3[C@@H](O)C[C@@]21C,Potency,[17],"inconclusive: 0.151 µM [activator, full curve]"
same,Potency,[9],"inconclusive: 0.944 µM [rising, full curve, poor fit]"
same,Potency,[2],"inconclusive: 6.68 µM [activator, single point]"
same,"activity change, negative = cytotoxicity",[16],inactive: 0.511% [at 15.8 µM]
CC(=O)CCc1ccc(O)cc1,Potency,[11],inactive
same,max response,[12],inactive: -1.37%
same,Potency,[13],inactive
same,Potency,[8],inactive
C/C(=N/NC(=O)c1ccncc1)C(=O)O,Potency,[5],inactive
same,Potency,[3],inactive
same,Potency,[15],inactive
COCCOCCOC,Potency,[14],"inconclusive: 2.19 µM [activator, single point]"
same,Potency,[15],"inconclusive: 1.95 µM [activator, single point]"
same,Potency,[8],"inconclusive: 68.7 µM [cytotoxic, partial curve, poor fit]"
CC(=O)C1CCCCC1=O (stereo not given),Potency,[9],inactive
same,Potency,[11],inactive
same,Potency,[3],inactive
same,Potency,[18],"inconclusive: 62.6 µM [inhibitor, partial curve]"
CCC(=O)OCCC(C)CCC=C(C)C (stereo not given),Potency,[3],"inconclusive: 17.4 µM [cytotoxic, partial curve, poor fit]"
same,Potency,[7],inactive
same,Potency,[18],active: 12.6 µM
CC/C=C\CCCCCCCCCCOC(C)=O,Potency,[9],inactive
same,Potency,[6],inactive
same,Potency,[10],"inconclusive: 27.3 µM [activator, single point]"
CC(C)c1cccc(C(C)C)c1,Potency,[9],inactive
same,Potency,[7],inactive
O=S(=O)(O)c1cccc2c(S(=O)(=O)O)cccc12,Potency,[12],"inconclusive: 61.5 µM [rising, single point]"
Oc1cc2ccccc2cc1O,Potency,[19],"inconclusive: 61.6 µM [activator, single point]"
same,Potency,[12],"inconclusive: 61.6 µM [rising, single point]"
same,Potency,[13],"inconclusive: 61.6 µM [activator, single point]"
same,Potency,[16],"inconclusive: 61.6 µM [rising, single point]"
same,Potency,[18],"inconclusive: 39.9 µM [inhibitor, partial curve]"
